Assay results: ChEMBL document CHEMBL4888484, “Replenishing the malaria drug discovery pipeline: Screening and hit evaluation of the MMV Hit Generation Library 1 (HGL1) against asexual blood stage Plasmodium falciparum ,using a nano luciferase reporter read-out” (2022)
Among all 150,000 compounds or so, about 540 (0.36%) showed an effect of 50% or more. Some of the results follow.

system: Plasmodium falciparum; assay: Primary screen in NF54 nanoGlo assay, in single point, at 2uM, 72h; a lower Z score goes with more inhibition; type: functional, Erythrocyte; conditions: timepoint 72 hour

| Structure (SMILES) | % Inhibition | Z score |
| --- | --- | --- |
| OCC1OC(Nc2ccc(Br)cc2)C(O)C1O (stereo not drawn) | -2% | 0.32 |
| COc1ccc(OC)c(C(=O)c2ccc(C(=O)N3CCCC3)cc2)c1 | -20% | 3.11 |
| COCCN(C(=O)CCc1cccc(F)c1)c1ccncc1 | 0% | -0.02 |
| COC(=O)c1cnccc1N1CC(C)(OC)C1 | 2% | -0.18 |
| CCc1ccc2c(c1)[C@H](CCNC(=O)c1ncccc1F)C(=O)N2 | -4% | 0.72 |
| COCCN1C(=O)CN(C2CCN(C(=O)Cc3ccc(Cl)cc3)CC2)C1=O | -5% | 0.52 |
| Cc1ccc(CNC(=O)c2csnn2)n1C | 40% | -4.05 |
| O=S(=O)(Cc1nnnn1-c1ccccc1)c1ccccc1 | -10% | 1.35 |
| O=C(Cc1noc(Cc2ccc(F)cc2)n1)Nc1ccc(N2CCOCC2)cc1 | -6% | 0.78 |
| COc1cc2ncc3c(-c4ccc(C)c(C)c4)n[nH]c3c2cc1OC | 51% | -4.04 |
| C[C@H]1CN(C(=O)Nc2ncc(Cc3ccccc3)s2)CCCO1 | -9% | 1.24 |
| Cn1cccc1-c1nnc(C2(C)CCOCC2)o1 | -12% | 1.17 |
| CC(=O)Nc1c(Cl)n(C(C)=O)c2ccccc12 | -9% | 1.25 |
| COc1ccc(-c2nc3cccnc3n2[C@H]2CCN(C(=O)Nc3cc(F)ccc3F)C2)cc1 | -11% | 1.61 |
| CCS(=O)(=O)c1cc(F)ccc1NC(=O)N1CC[C@]2(CCOC2)C1 | -8% | 1.16 |
| COc1nccc(N2C[C@H]3CC[C@@H](C2)N(Cc2c(C)noc2C)C3=O)c1C#N | -7% | 0.61 |
| CC(C)Cc1cc(N[C@H]2CC23CCOCC3)ncn1 | -9% | 1.46 |
| Nc1nc(CCCNCc2cccc(-c3ccco3)c2)cs1 | -25% | 2.77 |
| Cc1nn(C)c(C)c1[C@@H]1[C@@H](Nc2nccs2)CC(=O)N1C | -7% | 1.3 |
| O=C(Nc1ccccc1)C1CCN(CN2C(=O)NC3(CCCCC3)C2=O)CC1 | -7% | 1.04 |
| Cn1cc(Cl)c(NC(=O)N2CCn3cccc3C2)n1 | -12% | 1.23 |

| Structure (SMILES) | % Inhibition | Z score |
| --- | --- | --- |
| COc1ccc(Nc2nnc(C(=O)N3CCCC3)n2C)cc1 | -11% | 1.55 |
| COc1ccc(S(=O)(=O)N2CCOCC2)cc1NC(=O)Cc1ccc(F)cc1 | -15% | 1.99 |
| CCN(C(=O)C1=NN(c2ccccc2)C(=O)CC1)c1ccccc1 | 3% | -0.65 |
| Cc1ccc2[nH]nc(CNC(=O)[C@@H]3CCC(=O)N3)c2c1 | 2% | -0.29 |
| O=C(c1cncc(NC[C@@H](c2ccccc2)N2CCCCCC2)n1)N1CCCC1 | 5% | -0.88 |
| O=C(Cc1c[nH]c2ccccc12)Nc1cc(S(=O)(=O)N2CCOCC2)ccc1N1CCOCC1 | -4% | 0.71 |
| Cc1nc(NC(=O)C2=NN(C)C(=O)CC2)sc1-c1ccccn1 | 15% | -1.97 |
| Cc1cnc(CNC(=O)c2coc(COc3ccc(F)cc3Cl)n2)cn1 | -8% | 1.3 |
| Cc1ccc(Cn2nnc3c(O)nc([C@H]4CCCN(C(=O)COc5ccc(F)cc5)C4)nc32)cc1 | -15% | 1.33 |
| Cc1cc(F)ccc1-c1cccc(C(=O)N(C)CC2(CO)CCCC2)c1 | -6% | 0.59 |
| COc1ccccc1-c1nc(-c2cccc(OCc3ccc(C)cc3)c2)no1 | -5% | 0.84 |
| CCN(CC)C(=O)COc1c(OC)cccc1C(N)=O | 2% | -0.44 |
| CC(C)Cc1cc(-c2nccn2CC(N)=O)n[nH]1 | -3% | 0.38 |
| COc1ccccc1/C=C/CN1CCN(Cc2ccc(C)o2)[C@@H](CCO)C1 | -11% | 1.41 |
| CN(C(=O)c1ccc(C(=O)O)cn1)C1CCCCC1c1ccccc1 (stereo not drawn) | -6% | 0.61 |
| Cc1cn2nc(N3CCCC3)sc2n1 | -14% | 1.58 |
| C[C@@H](CCc1ccccc1)NC(=O)CCC(=O)N1CCCn2nc(-c3cccn3C)cc21 | -4% | 0.69 |
| COCCCN(Cc1c(-c2ccccc2)noc1N1CCCC1)C(=O)c1ccccc1C | 11% | -1.5 |
| Cc1noc2ncnc(NCC3CCCC34NC(=O)NC4=O)c12 (stereo not drawn) | -10% | 1.27 |
| COc1ccc(-c2cnoc2-c2cc(OC)c3c(c2)OCO3)cc1 | 6% | -0.72 |
| COCCc1noc(CN2C(C)CCCC2c2ccccc2)n1 (stereo not drawn) | -14% | 1.24 |

| Structure (SMILES) | % Inhibition | Z score |
| --- | --- | --- |
| N#Cc1ccccc1OCC(=O)N1CCC[C@H]1c1ccc2c(c1)OCCCO2 | 1% | -0.11 |
| O=C(NC1COc2c1ccc(Cl)c2Cl)N1CC2CCC1C(CO)C2 (stereo not drawn) | -4% | 0.77 |
| CCOC(=O)N1CCN(C(=O)c2ccc(-c3cnn(C)c3N)cc2)CC1 | 4% | -0.74 |
| CS(=O)(=O)N[C@H]1[C@H](NC(=O)c2n[nH]c3c2CCCC3)[C@@H]2CCO[C@@H]21 | -3% | 0.53 |
| c1cnc2nc([C@H]3CCN(CC4CCCCC4)C3)[nH]c2c1 | -5% | 0.7 |
| Cc1nn(C)c2[nH]c(C(=O)N3CCN(CCC(C)C)CC3)cc(=O)c12 | -23% | 1.93 |
| Cc1cc(C(=O)N2CCCN(CC3CC3)[C@H](C(C)C)C2)nc(N)n1 | -2% | 0.33 |
| O=C(Nc1ccnc(Cc2ccccc2)n1)N[C@H]1CC[C@H](O)CC1 | -1% | 0.16 |
| Cc1ccc(C(F)(F)F)cc1NC(=O)N(C)CCS(C)(=O)=O | -8% | 0.78 |
| CCn1ccc(C(=O)Nc2nc(-c3ccc4c(c3)OCO4)cs2)n1 | -14% | 2.43 |
| Cc1cnc(C)n1CCC1CCN(C(=O)CN2CCCC2=O)CC1 | -14% | 1.78 |
| O=C(c1ccco1)N1CC[C@H](Oc2cc(N3CCOCC3)ncn2)C1 | -12% | 1.52 |
| COc1cccc2c(CN3CCOCC3)cc(=O)[nH]c12 | -12% | 1.59 |
| OC[C@H]1CCCN(C2CCN(c3ccc(-c4cccc(F)c4)cc3)CC2)C1 | -2% | 0.32 |
| CNC(=O)N[C@H]1CCCN(Cc2ccc(F)cn2)C1 | -39% | 4.57 |
| O=C(O)[C@]12CCC[C@H]1CC(NCc1ncn(Cc3cccc(F)c3)n1)C2 (stereo partly drawn) | -17% | 2.89 |
| Cc1[nH]c2c(c1C(=O)N1C[C@@H]3[C@@H]4CC[C@@H](C4)[C@@H]3C1)C(=O)CCC2 | 1% | -0.13 |
| Cc1ccn2c(NC(=O)C3CCC3)c(-c3cccc(F)c3)nc2c1 | -9% | 1.79 |
| COC1CCC(CNC(=O)[C@H]2NCC23CCCC3)CC1 (stereo partly drawn) | -2% | 0.32 |
| CNC(=O)c1cc(S(=O)(=O)N2CCC(=O)C3CCCC32)cn1C (stereo not drawn) | -7% | 0.75 |
| O=C(Nc1cccnc1)c1ccc(O[C@H]2CCOC2)nc1 | -16% | 3.11 |

| Structure (SMILES) | % Inhibition | Z score |
| --- | --- | --- |
| CCOc1ccc(S(=O)(=O)N[C@@H](C)c2nccs2)c(C)c1 | -15% | 2.14 |
| COCCCNC(=O)c1cc(Br)ccc1Br | -3% | 0.44 |
| CC[C@H]1CCCCN1Cn1nc(-c2cc(OC)cc(OC)c2)oc1=S | 2% | -0.31 |
| NC[C@H]1CCCCN1C(=O)c1cnc(Cc2c(Cl)cccc2Cl)nc1O | -14% | 2.75 |
| CCCCC(C)C(=O)NCC1CCCN(CC(F)(F)F)C1 (stereo not drawn) | -19% | 2.07 |
| Cc1ncsc1CCN(C)Cc1nc(C(F)(F)F)no1 | -16% | 1.88 |
| O=C1[C@@H]2Cc3c([nH]c4ccccc34)C(CCc3ccccc3)N2C(=O)CN1Cc1ccccc1Cl (stereo partly drawn) | -14% | 1.69 |
| COc1ccccc1Cn1cnc2c3ccccc3n(Cc3ccc(C)cc3)c2c1=O | -11% | 1.27 |
| COc1cc(NC(=O)CN(C)C(=O)c2n[nH]nc2C)cc(OC)c1 | -4% | 0.47 |
| Cc1ccc(Nc2nnc(CC(=O)Nc3ccc(OC(F)(F)F)cc3)s2)cc1 | -15% | 1.91 |
| NC(=O)C1CCN(C(=O)c2cnc(O[C@H]3CCOC3)c(Cl)c2)CC1 | 3% | -0.62 |
| CN(C)c1ncccc1C(=O)Oc1cccc(Cl)c1Cl | -3% | 0.48 |
| C[C@@H](O)CNC(=O)NCC(c1cccc(C(F)(F)F)c1)N(C)C (stereo partly drawn) | -8% | 1.07 |
| Cc1cccc(NC(=O)N[C@H]2CCC[C@H]2C(N)=O)n1 | -4% | 0.79 |
| CC(C(=O)N1C[C@H](CS(N)(=O)=O)[C@@H](C)C1)c1ccccn1 (stereo partly drawn) | -8% | 1.62 |
| CC(=O)N[C@H]1CCCN(Cc2cc(=O)c3cc(C)ccc3[nH]2)C1 | -4% | 0.7 |
| CCN1CCC(CC(=O)N[C@@H](C(=O)O)c2ccc(F)c(Cl)c2)CC1 | -6% | 1.06 |
| Nc1cccc(C(=O)NCc2ccc(CN3CCC(O)CC3)cc2)n1 | -4% | 0.7 |
| O=C(c1ncoc1-c1ccon1)N1CCOc2c(Br)cccc2C1 | -17% | 1.81 |
| O=S(=O)(c1ccc(F)c(Cl)c1)N1CCC[C@H]1c1nncn1Cc1ccncc1 | -5% | 0.93 |
| CCCC1C2C(=O)N(c3c(C)cccc3C)C(=O)C2ON1c1ccccc1 (stereo not drawn) | -2% | 0.23 |
